± gives the standard deviation of the averaged measurements. This is one part of the list.
Tested on: PfAP2-EXP AP2 domain (GST-tagged)
Test: gcPBM binding intensity (ln(normalized median fluorescence intensity)); higher = stronger DNA binding
How it was run: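 The binding buffer was 1× PBS containing 1% milk, 0.2 mg/ml BSA, 0.5% salmon testes DNA and 0.03% Triton X-100. In it, GST-tagged P. falciparum DNA-binding domains expressed in E. coli were applied for 1 h to an Agilent 4 × 180k array of primer-extended double-stranded 36-bp intergenic genomic probes plus negative controls. Binding intensity, read with Alexa488 anti-GST antibody and a 488 nm scan, is the highest Masliner-normalised natural-log median intensity across replicate spots of either probe orientation.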

Sequence	gcPBM binding intensity (ln)
TATAAACATATCATATGTACATATATTTTTATAAAA [XGTACX_site8882]	8.42 ± 0.35
AAGAAAAAATAAAAAATAAAAATAAAAAATAAAAAA [TGCATGCA_negctrl_site274]	8.35 ± 0.3
TTAAATATAATATTATGTACTAAATATTTTTTTATT [XGTACX_site6121]	8.09 ± 0.37
TTTCTTTTTAAATAGGTGCATATTTTTATAAATATA	9.03 ± 0.45
CAAGAAATTTACAAACGTACATATGTTCATACAAGG [XGTACX_site2372]	8.79 ± 0.37
TTAGAGAAACAAAATTGTACATTATAAATTTGCCTT [XGTACX_site440]	8.34 ± 0.34
TATTTGAAAGCCAATTGTACTTTAGTTTTTGAAACA [XGTACX_site5542]	8.3 ± 0.37
CTATTTCAGAAACACACACACACAAACAAACATATA [CACACA_site978]	8.73 ± 0.66
ATATATTTACATATTACACACAATATTGTACACATA [CACACA_site6564]	8.83 ± 0.47
TTTATATATATTCTCACACACTTTTTATTTTAACAA [CACACA_site4534]	8.62 ± 0.38
AAAAATATTTATAACACACACATAATATTTATATAT [CACACA_site7238]	8.53 ± 0.44
ATAAATTTCCTCGTTTTTTTTTTTTTTTTTTTTTTT [CACACA_negctrl_site1173]	9.01 ± 0.19
TATGTCAAAAAATAATGTACAAAAAAATTAACATAA [XGTACX_site5463]	8.5 ± 0.38
CTATAATATAGGTATACACACATATTATAGAATATT [CACACA_site7696]	8.42 ± 0.48
ATATAAAATAGACACGCACACAAAAAAAAAAAAAAA [CACACA_site3522]	8.38 ± 0.51
TATATATGGAAAAGGTGTACATTCAATATATATATA [XGTACX_site3167]	9.75 ± 0.31
TTTATTTTGTAGTGTACACATATATATATATATATA [CACACA_site5843]	10.3 ± 0.36
TGAGTATTTTTTTAATGTACTTATATTAAAAGGAAA [XGTACX_site6286]	8.405 ± 0.035
TATATTTTTTTTCTAGTGCATATTATTAATTAAGTT	8.81 ± 0.18

Sequence	gcPBM binding intensity (ln)
TACAAAATAAGACATGCATGTTATACATATATATTT [TGCATGCA_site321]	9.24 ± 0.35
AAAATATTATTTTGTTGTACATATAAAATTTTAAGC [XGTACX_site1866]	8.72 ± 0.47
AAACAAAAAAGAAACACACACTAATTAAATTTTCTT [CACACA_site4746]	8.32 ± 0.57
TACAATACCGTACAGGTGCAACTAGCCAAAAAAAAG	8.96 ± 0.44
TAAATTAATAAAAAGTGTACATAATATACATATATA [XGTACX_site8604]	8.62 ± 0.33
TTTAATAATATTTAGGTGCTATATATTATATGTATA	8.32 ± 0.21
ATAATTAAAAAAGGAATATATATATATATATATATA [GTGCAC_negctrl_site343]	10.1 ± 0.46
CGTATGACATAATATTGTACTTTTGATATACATCAT [XGTACX_site7366]	8.52 ± 0.35
ATAAATCATAAGGAGAGTACATAAATAAAATAATCA [XGTACX_site8825]	8.8 ± 0.49
AAGTGGCATATAAGTAAAAAATATATACAAGTATAT [GTGCAC_negctrl_site427]	8.49 ± 0.27
TATTAAAGATACTCGGTATAAATAAATTTTAATGTG [XGTACX_negctrl_site239]	8.34 ± 0.49
CTCAATATATTTGATTTACACACTTACAATGTATAT [CACACA_site8982]	8.69 ± 0.35
TTATTTCTACCTTTTTGTACACATTATTATGAAACC [XGTACX_site5325]	9.14 ± 0.49
TATAAAAAATATAATTGTACATAAAGGTTAAAATGT [XGTACX_site6138]	8.91 ± 0.35
ACAACATGCACACGCACACACAAAAAAAGCATGCAT [CACACA_site6185]	9.47 ± 0.057
ATGCTTATTATTTATTGTACTGAATAAATATATCTG [XGTACX_site4483]	8.5 ± 0.24
TATTAACACTTTATAGAAACAAAAAAATAAGCAAAA [XGTACX_negctrl_site295]	8.53 ± 0.3
TTTGAATTTTTTAACACACACATGTGTGGATATATA [CACACA_site6872]	8.56 ± 0.35
TGGGTAATACATAATACACACATGTATATGTCGCAT [CACACA_site1125]	8.46 ± 0.35

Sequence	gcPBM binding intensity (ln)
AGTATATATACACAAGGGGAATACATATACAAAATT [TGCATGCA_negctrl_site244]	8.89 ± 0.39
AAATTTATATAATATTGTACATTAAAAATTATATAT [XGTACX_site8009]	8.21 ± 0.25
TTTTTAAAAAAGATAAGCGAAAGAATTAATTTTTAA [GTGCAC_negctrl_site197]	8.48 ± 0.43
TATGTATAAATATATGCACACATATATATATTTATA [CACACA_site9150]	8.42 ± 0.18
ATATATATAATAAACACACACATATACATATATGTA [CACACA_site3462]	8.61 ± 0.23
AAGTTGTATATTGATTGTACTTGTTTAGGGTTATAG [XGTACX_site2953]	8.64 ± 0.42
TATATATATATAATGTGTACACAAATATATATTATA [XGTACX_site8786]	9.74 ± 0.23
AGGTAAAATATACATTGTACATATAATTAATTTATT [XGTACX_site626]	8.47 ± 0.4
ACATACTTTAATATATGTACATAAGAAAAAAAAAAA [XGTACX_site2991]	8.69 ± 0.35
AATATAAATTAATTTACACACTAAAAAATATTTATA [CACACA_site7728]	8.27 ± 0.41
TATTTTTTATATTTATTTATTTAAAGGAGCTTTTCT [GTGCAC_negctrl_site293]	8.16 ± 0.33
TATAAGAATGACAAGTGTACATATCAAATATATTAG [XGTACX_site7113]	8.52 ± 0.43
TATACTAAAAAATACACATGCACATACAATATATAT [TGCATGCA_site1016]	9.12 ± 0.28
AAAATAATATATAATTGTACTTTTTTTTTATATATA [XGTACX_site6093]	8.3 ± 0.37
ATTATTACACAACGTTGTACATTTCAATATTTTTAT [XGTACX_site5096]	9.05 ± 0.47
TCCTCTTCAATATATATATATTATAAATAAATAAAT [CACACA_negctrl_site1756]	8.62 ± 0.47
TTTTTTCTTAAAATTTGTACATAGTGCAATTTTTTT [XGTACX_site5509]	8.21 ± 0.29
TTTCTTTTTTTTTAATGTACTTTTTTTATAAAAGGT [XGTACX_site5688]	8.59 ± 0.39
TGTACATATATATATATAATAATAGTTATGTTTATT [CACACA_negctrl_site1474]	8.36 ± 0.31

From the supplement of paper PMC11417369
